Measured values from the supplement of paper PMC11417369.
± gives the standard deviation of the averaged measurements. This is one part of the list.

What follows are sequences tested on PfAP2-G AP2 domain (GST-tagged) (assay: gcPBM binding intensity (ln(normalized median fluorescence intensity)); higher = stronger DNA binding).
Method in brief: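 Each value is the highest Masliner-normalised natural-log median intensity across replicate spots of either orientation of a probe. The probes were primer-extended double-stranded 36-bp intergenic genomic sequences on an Agilent 4 × 180k array, alongside negative controls, exposed for 1 h to GST-tagged P. falciparum DNA-binding domains expressed in E. coli. Bound protein was picked up with Alexa488 anti-GST antibody and scanned at 488 nm.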

“CGTATATCACCAACTAGTACATATAAATAAATAAAT [XGTACX_site8837]” and “ATATATATTATATGCACACTAATAAGACTATTTAAA [CACACA_site3554]” are within error of each other in “gcPBM binding intensity (ln)” value: 10.9 ± 0.71 for the first, 10.1 ± 0.23 for the second.

“GTATATGTACTATACGCACACACACCCACATATATA [CACACA_site9062]” and “CATTTGCCCAGGCACACACACATAAAAAGAAAAATA [CACACA_site356]” are within error of each other in “gcPBM binding intensity (ln)” value: 11.1 ± 0.67 for the first, 10.2 ± 0.28 for the second.

Compared with “AATGAAAGGATGCTGTGTACATATATATATATATAT [XGTACX_site7901]”, “TATAAAAATATTTCTACACACATTAAAATATATATA [CACACA_site4770]” is lower in “gcPBM binding intensity (ln)” value: 11.2 ± 0.64 for the first, 9.845 ± 0.064 for the second.

Compared with “AAGAAAATTGTCTGAAGTACAAAACATTAATAATAT [XGTACX_site4864]”, “AATTTAATATAATGCACACATAAAAAAAAAAAATTC [CACACA_site1504]” is lower in “gcPBM binding intensity (ln)” value: 11.2 ± 0.78 for the first, 10 ± 0.23 for the second.

“AGCTTGTGGATGCAGGTGCTACATTTGTTCTATAAT [GTGCAC_site9645]” and “TGGTCTTTTAAACAAAAATATAAATTTTTAAATATG [CACACA_negctrl_site392]” are within error of each other in “gcPBM binding intensity (ln)” value: 10.01 ± 0.014 for the first, 9.94 ± 0.23 for the second.

“AAGATAAATTATTATAAATCAATTGTGCCAACAATA [CACACA_negctrl_site144]” and “TATATATATATATAAGCACACAAACAAAAAAAATTA [CACACA_site9293]” are within error of each other in “gcPBM binding intensity (ln)” value: 10.1 ± 0.18 for the first, 10.3 ± 0.35 for the second.

“GGTTATTTCACAGAATGTACTTATTATATATAAAAT [XGTACX_site8886]” and “TTTTTTTTGTGTTCAAGTACAAAATTTTAAAGGTCA [XGTACX_site4011]” are within error of each other in “gcPBM binding intensity (ln)” value: 11.1 ± 0.79 for the first, 10.9 ± 0.55 for the second.

“TGTTATAAGATTTATGTACACACATATACACCCCTC [CACACA_site8141]” and TATATATATATATGTATGCACTTTAATTTTATAAGG are within error of each other in “gcPBM binding intensity (ln)” value: 11.6 ± 0.88 for the first, 10.3 ± 0.61 for the second.

Compared with “TATATATGTATATATACACACAACGGTTATAAATAT [CACACA_site1128]”, “GATCCATTATTGATCCGTACTTATTCATGTTATATA [XGTACX_site5946]” is higher in “gcPBM binding intensity (ln)” value: 10.09 ± 0.021 for the first, 10.8 ± 0.45 for the second.

Compared with “AAGATTAGGTTAATTAGTACTTATTATATTGTAATG [XGTACX_site3653]”, “AATATAAATAAAAACACACACACACCGATATATATA [CACACA_site5283]” is lower in “gcPBM binding intensity (ln)” value: 10.9 ± 0.35 for the first, 10.1 ± 0.3 for the second.

“CTTGTACCTAGAAATACACACAATTCTATAACTTAT [CACACA_site7355]” and “TAATTTTTTTTAATAACACACATATAAATATAAATA [CACACA_site6521]” are within error of each other in “gcPBM binding intensity (ln)” value: 10.9 ± 0.69 for the first, 10.1 ± 0.35 for the second.

“CATTTGCACCCGCACACACACATAAAAAGAAAAATA [CACACA_site4350]” and CATATTATTATTTTGGTGCATACTTATATATATTTT are within error of each other in “gcPBM binding intensity (ln)” value: 10.5 ± 0.61 for the first, 10.2 ± 0.18 for the second.

“GTACCTATTTCATACACACACACACCCAAACAAACA [CACACA_site976]” and “GAAACAATTTGATATTGTACATAAATAAATAAAAAC [XGTACX_site8869]” are within error of each other in “gcPBM binding intensity (ln)” value: 10.7 ± 0.51 for the first, 11 ± 0.54 for the second.

Going from “AACATTGATAAATATAAACACACGAAAACAGACATA [CACACA_site490]” to “GTTTTATTTTCAATGTGTACTTATTATTTGATATAC [XGTACX_site6402]”, the “gcPBM binding intensity (ln)” value rises from 10.2 ± 0.18 to 11.6 ± 1.1.

“AATGTGTAGACACGCACACACAAAAAAATATATATA [CACACA_site5595]” and “AATGTAGAAATGGGTGCACACACATATATAATATAT [CACACA_site8799]” are within error of each other in “gcPBM binding intensity (ln)” value: 10 ± 0.18 for the first, 10.8 ± 0.68 for the second.

Compared with “TTTTGTAATGTGAATATTTGTATATTATTTGTATAT [CACACA_negctrl_site1677]”, “ACATTCTATCTAAGTACACACATTAATTTTTTTTTT [CACACA_site4106]” is higher in “gcPBM binding intensity (ln)” value: 9.79 ± 0.028 for the first, 11.4 ± 0.78 for the second.

“TACTTATATTGAAATGGTACAGATAAAAAAAAAAAA [XGTACX_site1407]” and “AATTTACATATATATTGTACATTTATGTATATATAT [XGTACX_site4186]” are the same in “gcPBM binding intensity (ln)” value: 10.7 ± 0.64 for the first, 10.7 ± 0.52 for the second.

First: TAATATTTTTTGTGTACACATATATATATATATATA [CACACA_site5504]
Second: TTTATATTATACGCACTAATATATATATATATATAT [TGCATGCA_negctrl_site47]
The “gcPBM binding intensity (ln)” value of the first is higher: 11.7 ± 0.88 for the first, 10.3 ± 0.38 for the second.

“ATATAACACAAGGGCACACATATACCTTTCCTTTTT [CACACA_site412]” and “AATTAGATGGATAAATGTACATATGTGAATATATTT [XGTACX_site85]” are within error of each other in “gcPBM binding intensity (ln)” value: 10.4 ± 0.2 for the first, 10.9 ± 0.42 for the second.

“GTGCCCTTTTTAATAACATGCAAATAACATATTTAT [TGCATGCA_site709]” and “AAAAAAAAAAAAAACACACAAACATCAAATTATTAT [CACACA_site1838]” are within error of each other in “gcPBM binding intensity (ln)” value: 10.1 ± 0.18 for the first, 9.91 ± 0.028 for the second.

Compared with “AATTTCTTCTTAGGGTGTACAATTTGACATAAGGAA [XGTACX_site1773]”, “GTAATATATATTAAGTAATAGTTTATCTTAGGAAAA [TGCATGCA_negctrl_site302]” is lower in “gcPBM binding intensity (ln)” value: 11.3 ± 0.74 for the first, 9.76 ± 0.028 for the second.

“ATATATATATATTGTACACACATTTATGCATATATA [CACACA_site5738]” and “TTTTTTTGCATTTCATGTACATATATTGAGCTTAAA [XGTACX_site8485]” are within error of each other in “gcPBM binding intensity (ln)” value: 11.4 ± 0.63 for the first, 11.3 ± 0.76 for the second.
